From ChEMBL document CHEMBL4888484, “Replenishing the malaria drug discovery pipeline: Screening and hit evaluation of the MMV Hit Generation Library 1 (HGL1) against asexual blood stage Plasmodium falciparum ,using a nano luciferase reporter read-out” (2022) come the findings set out here.

Hit rate of the full screen: of about 150,000 compounds, about 540 (0.36%) showed an effect of 50% or more. Some of the results follow.

This test deals with Plasmodium falciparum. The test is described as follows: Primary screen in NF54 nanoGlo assay, in single point, at 2uM, 72h; a lower Z score goes with more inhibition. The format is functional, Erythrocyte. To be noted: timepoint 72 hour.
Regarding `Cc1ccsc1CN(C)[C@H]1CCN(C(C)(C)C)C1=O`, the “% Inhibition” value was determined as 5% and the Z score is given as -0.73.

With `CCc1nnc(CNC(=O)c2ccc3c(c2)OCO3)o1`, the “% Inhibition” value was -10% and the Z score was found to be 1.48.

For the compound `Cc1nc([C@@H]2CCCCN2C(=O)Nc2ccc(Cl)cc2Cl)n[nH]1`, the “% Inhibition” value was -3% and the Z score is reported as 0.57.

In the case of `CN(C)C(=O)N1CCC(c2nc(-c3ccc4c(c3)OCO4)no2)CC1`, the “% Inhibition” value is on record as 2% and the Z score was -0.24.

As to `CCc1ncncc1C(=O)Nc1ccc(Br)c(C)n1`, the “% Inhibition” value is -1% and the Z score was found to be 0.12.

As for `Nc1c(C(=O)N2CCCCC2)sc(=S)n1-c1ccc(F)c(Cl)c1`, the “% Inhibition” value was -4% and the Z score was 0.5.

`Cn1cncc1-c1ccc([C@@H]2CNCCO2)cc1`: the “% Inhibition” value worked out at 17% and the Z score is on record as -2.04.

Consider `O=C(Nc1ccccc1C#Cc1ccccc1)c1ccc(-c2ccccc2)cc1`, for which the “% Inhibition” value is recorded as -1% and the Z score was 0.17.

Regarding `COC(=O)N[C@@H](C)c1ccc(C(C)C)cc1`, the “% Inhibition” value is -13% and the Z score was 1.88.

With `CCC(=O)N1CC[C@H](C(=O)NC(C)(C)c2cc(C(F)(F)F)on2)C1`, the “% Inhibition” value is given as -6% and the Z score is recorded as 0.78.

For the compound `O=C(Nc1ccsc1)Nc1ccn(CCc2ccncc2)n1`, the “% Inhibition” value stood at 1% and the Z score was -0.08.

On to `CC(NS(=O)(=O)N(C)C(C)C)C1CCCO1` (stereo unspecified), for which the “% Inhibition” value was -8% and the Z score is 1.17.

For the compound `O=C(c1ccc2c(=O)n(-c3ccccc3)c(N3CCCCC3)nc2c1)N1CCN(c2ccccc2)CC1`, the “% Inhibition” value is on record as -10% and the Z score amounted to 1.92.

For the compound `COc1ccnc(C(=O)N2Cc3nc(C)n(C)c(=O)c3C2)c1`, the “% Inhibition” value is on record as -21% and the Z score is listed as 2.02.

For `O=C1c2ccccc2N[C@H](c2ccc(O)c(Br)c2)N1c1ccc2c(c1)OCCO2`, the “% Inhibition” value was -5% and the Z score was found to be 0.46.

Consider `O=C(c1ccccc1)N1C[C@@H]2Oc3ncccc3S(=O)(=O)N[C@@H]2C1`, for which the “% Inhibition” value is on record as -9% and the Z score stood at 1.3.

As for `Cc1cc(C)c2c(C)c(C(=O)Nc3ccc(-n4cnnn4)cc3)oc2c1`, the “% Inhibition” value turned out to be 1% and the Z score was -0.17.

Consider `Cc1cc(C)n2ncc(-c3cc(C4CCC4)nc(N)c3C#N)c2n1`, for which the “% Inhibition” value is given as -10% and the Z score was determined as 1.4.

Take `CC1CCC(NC(=O)Cn2nccc2-c2cccnc2)CC1` (stereo unspecified): the “% Inhibition” value is reported as -5% and the Z score came to 0.98.

Consider `Cc1ccccc1[C@]1(O)CCN(C(=O)c2ccc(N3CC(=O)NC3=O)cc2)C1`, for which the “% Inhibition” value was -11% and the Z score came to 1.06.

For `Cc1ncsc1CCNC(=O)N(C)Cc1ccoc1`, the “% Inhibition” value is -16% and the Z score turned out to be 1.56.

Turning to `CCn1c(NCc2cc(Br)ccc2O)nc2ccccc21`, the “% Inhibition” value is given as 4% and the Z score was -0.42.

Consider `N#Cc1ccccc1Cn1nc(-c2cccnc2)n(C2CC2)c1=O`, for which the “% Inhibition” value is reported as -1% and the Z score came out at 0.16.

As for `CN(C(=O)CC#N)[C@@H]1c2ccccc2N(C(=O)OC(C)(C)C)C[C@H]1O`, the “% Inhibition” value is -16% and the Z score was determined as 1.84.

On to `COc1ccc(-c2c(C)nn3c(N4CCC(C(=O)NC5CC5)CC4)cc(C)nc23)cc1OC`, for which the “% Inhibition” value was 43% and the Z score was -5.65.

On to `CN(C)C(=O)CCc1nc(-c2cccc3c2ccn3C)nn1C(C)(C)C`, for which the “% Inhibition” value is recorded as -17% and the Z score is on record as 1.83.

Turning to `O=C(c1c[nH]c2ncnn2c1=O)N1C[C@@H]2CC[C@H]1CN(Cc1ccccn1)C2`, the “% Inhibition” value was -2% and the Z score was found to be 0.3.

For `O=C(c1ccccc1-n1cnnn1)N1CC2CC=CCC2C1` (stereo unspecified), the “% Inhibition” value turned out to be 3% and the Z score was -0.42.

For the compound `O=c1c2occc2ccn1CCNS(=O)(=O)C1CC1`, the “% Inhibition” value is -12% and the Z score worked out at 2.

Regarding `CCCc1ccc(CCCC(=O)N2CCNC(=O)[C@@H]2C)cc1`, the “% Inhibition” value came to 0% and the Z score is reported as -0.03.

For the compound `COc1ccc(Cn2nnc3cc(C(=O)Nc4ccc(C)cc4C)ccc32)cc1`, the “% Inhibition” value is -2% and the Z score was 0.34.

On to `C#CCOC[C@@H](O)CN(Cc1c(C)nn(-c2ccccc2)c1Oc1ccc(Cl)cc1)C1CC1`, for which the “% Inhibition” value amounted to 10% and the Z score is -1.24.

`O=S(=O)(C1C[C@@H]2CC[C@H]1C2)N1CCc2cnccc21` (stereo partly specified): the “% Inhibition” value worked out at 3% and the Z score was -0.39.

For `C[C@]1(C(=O)O)CCN(C(=O)CCC=Cc2ccccc2)C1`, the “% Inhibition” value is on record as -6% and the Z score is recorded as 0.69.

`COc1ccc(NC(=O)Cc2c(C)nn(-c3nc(C)cs3)c2C)cc1`: the “% Inhibition” value was found to be 0% and the Z score stood at 0.03.

For the compound `Cc1c(C(=O)Nc2ccccc2)[n+]([O-])cn1-c1ccc2[nH]c(CC(C)C)nc2c1`, the “% Inhibition” value is reported as -12% and the Z score was determined as 1.83.

With `FC1(F)CC(COc2ncc(Br)cn2)C1`, the “% Inhibition” value is -4% and the Z score is listed as 0.63.

As to `O=C(CN1C(=O)N[C@]2(CCc3ccccc3C2)C1=O)Nc1ccc(Cl)cc1F`, the “% Inhibition” value was -5% and the Z score amounted to 0.81.

For the compound `Cc1cc(C)c(CNS(=O)(=O)CC2CCOCC2)c(C)c1`, the “% Inhibition” value is recorded as -11% and the Z score is on record as 1.54.

Consider `COc1c(F)c(F)c(CN2CCCCCC2=O)c(F)c1F`, for which the “% Inhibition” value is -6% and the Z score is reported as 0.76.

For the compound `Cn1c(=O)[nH]c(=O)c2nc(C=Cc3ccccc3F)c(O)nc21`, the “% Inhibition” value is on record as -5% and the Z score stood at 0.87.

For the compound `COCCN1C[C@]2(CCCN(C(=O)c3cc(F)ccc3OC)C2)CCC1=O`, the “% Inhibition” value was -7% and the Z score was determined as 1.49.

As to `COCCN(Cc1c(C(C)C)nn(-c2ccccc2)c1Oc1ccccc1F)C(=O)c1ccccc1`, the “% Inhibition” value is listed as 8% and the Z score is reported as -0.96.

With `O=C(c1ccccc1Cl)N1C2CCC1CC(n1cccn1)C2` (stereo unspecified), the “% Inhibition” value is on record as 13% and the Z score is reported as -1.63.

Take `Cc1cc(=O)c(C(=O)NCc2cccnc2N2CCCCCCC2)c[nH]1`: the “% Inhibition” value is -18% and the Z score came to 2.87.

`COCc1ccc(C(=O)N2CCC([C@H](Cc3ccc(F)cc3F)N(C)C(=O)c3cccnc3)CC2)o1`: the “% Inhibition” value was found to be 2% and the Z score is reported as -0.24.

As for `COc1cccc(C(=O)N2CCN(C(=O)C(C)C)[C@@H]3CS(=O)(=O)C[C@@H]32)c1C`, the “% Inhibition” value turned out to be 0% and the Z score was 0.04.

As to `Cc1cc(CN2CCCN(C(=O)c3cccc(N(C)C)c3)CC2)no1`, the “% Inhibition” value is given as -8% and the Z score was determined as 1.07.

`COc1ccccc1CCNS(=O)(=O)C1CON(C)C1c1cccc(C(F)(F)F)c1` (stereo unspecified): the “% Inhibition” value came to 0% and the Z score is given as 0.

Regarding `Cc1nc(C(N)=O)c2c(n1)n(-c1ccc(C)c(C)c1)c(=O)n2Cc1ccccc1`, the “% Inhibition” value is 0% and the Z score is recorded as 0.03.

For the compound `Cc1c(C(=O)NC[C@H]2CCCO2)cccc1-n1c(C)nc2cccnc21`, the “% Inhibition” value is 0% and the Z score is on record as -0.04.

In the case of `Cc1nc(C(C)C)ncc1C(=O)N1[C@@H]2CC[C@H]1CNC(=O)C2`, the “% Inhibition” value came to 5% and the Z score is given as -1.07.

Take `CCC(=O)NCc1nc2c(n1C)CN(C(=O)c1cccc(Br)c1)CC2`: the “% Inhibition” value is -10% and the Z score amounted to 1.12.

A word on the % Inhibition: it is the change of the read-out against control, counted positive when it falls.
